From PubChem BioAssay AID2147 (National Center for Advancing Translational Sciences (NCATS), 2009)
Several values for one entry are separate records, joined by “and”; a condition that tells them apart may be missing. Equal values may be shown once. The whole screen tested about 230,000 compounds, of which about 3,600 (1.6%) were called active. Inconclusive means that the source gave no clear call. Such entries were picked first, then a sample of the others. Calls follow the shape of the dose curve; as a rule, active = well fitted inhibition curve with a large enough effect (not every such curve was filed as active); inconclusive = small, poorly fitted or top-dose-only effect, or another doubt; inactive = no such curve, though single readings can be large or run the other way. Where the call is inconclusive, the potency comes from a doubtful curve fit.

biological target: Lysine-specific demethylase 4E (Homo sapiens) (UniProt B2RXH2); assay: qHTS Assay for Inhibitors of Human Jumonji Domain Containing 2E (JMJD2E); settings: JMJD2E catalytic domain, FDH-coupled NADH fluorescence (FDH is formaldehyde dehydrogenase); series mostly up to 57.1 µM; activity change, negative = inhibition: at the top concentration
Also: nearly all actives have a fitted effect of over 50% in size.
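For activity change, negative = inhibition in this document: 0% = wells with enzyme and -100% = buffer wells without enzyme.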
Potency is read from the fitted curve at half-maximal effect; tags tell the direction and shape of the fitted curve.

UniProt B2RXH2, sequence (B2RXH2 whole entry, looked up, the tested form may be a part): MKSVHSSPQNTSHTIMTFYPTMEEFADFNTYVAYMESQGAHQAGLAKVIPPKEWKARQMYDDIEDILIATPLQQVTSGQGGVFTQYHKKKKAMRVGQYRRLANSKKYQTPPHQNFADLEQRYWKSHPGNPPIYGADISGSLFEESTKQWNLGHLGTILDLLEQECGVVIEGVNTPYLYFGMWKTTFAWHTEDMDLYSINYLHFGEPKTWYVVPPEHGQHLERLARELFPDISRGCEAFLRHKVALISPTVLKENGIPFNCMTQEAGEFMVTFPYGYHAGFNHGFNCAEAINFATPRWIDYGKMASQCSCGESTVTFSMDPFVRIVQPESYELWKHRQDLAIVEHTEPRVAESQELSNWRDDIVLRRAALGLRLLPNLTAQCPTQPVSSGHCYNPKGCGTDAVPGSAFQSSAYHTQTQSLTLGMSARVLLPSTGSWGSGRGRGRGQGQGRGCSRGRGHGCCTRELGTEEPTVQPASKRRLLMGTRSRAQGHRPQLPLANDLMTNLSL

| SMILES | Potency | activity change, negative = inhibition |
| --- | --- | --- |
| O=C(O)/C=C/c1ccc(-c2cccc(C(F)(F)F)c2)o1 | inconclusive: 31.6 µM [inhibitor, partial curve] |  |
| COc1cc2c(cc1NC(=O)CSc1nnc(Cc3cccs3)n1C)oc1ccccc12 |  | inactive: -3.28% |
| O=C(Nc1ccc2nn(-c3ccccc3)nc2c1)c1ccco1 |  | inactive: 0.973% |
| CC1CCCCC1NC(=O)C1CCN(C(=O)NC2CCCCC2)CC1 (centres undefined) |  | inactive: 2.58% |
| O=C(N1CCN(c2ccccn2)CC1)C(Cl)(Cl)Cl |  | inactive: 6.56% |
| CCCCNC(=O)C(=O)N/N=C/c1ccc(OCC(=O)Nc2cccc(OC)c2)c(OC)c1 | inconclusive: 3.98 µM [inhibitor, single point] |  |
| CN(C)c1ccc(/C=N\NC(=O)c2csnn2)cc1 |  | inactive: -20.8% |
| COc1ccc2[nH]cc(C(=O)CN3CCCCC3C)c2c1 (centres undefined) | inconclusive: 35.5 µM [inhibitor, single point] |  |
| O=C(Cc1cccs1)N(c1ccc(Br)cc1)C1C=CS(=O)(=O)C1 (centres undefined) |  | inactive: 11.8% |
| CCCCOc1ccc(/C=C/C2=CC(C)(C)NC(=S)N2)cc1OCC |  | inactive: -20.4% |
| COC(=O)CSc1nc2c(c(-c3ccc(C)o3)c1C#N)CCCC2 | inconclusive: 28.2 µM [inhibitor, partial curve] |  |
| Cc1cc(C)cc(C(=O)NCCCc2ccccc2)c1 | inconclusive: 1.78 µM [inhibitor, partial curve] |  |
| O=C(CN1CCOc2ccccc21)NCc1ccco1 |  | inactive: 0.524% |
| CC(C)(C)N/C=C(\C#N)S(=O)(=O)c1ccc(Br)cc1 |  | inactive: -7.42% |
| O=C(O)Cc1sc(Nc2ccc(F)cc2)nc1-c1cccs1 | inconclusive: 39.8 µM [inhibitor, single point] |  |
| N#Cc1c(N2CCCCC2)nc(N)c2c(N)nc3c(c12)CC(CCl)O3 (centres undefined) | inconclusive: 31.6 µM [inhibitor, partial curve] |  |
| Cc1ccc(O)c(/C=N/NC(=O)c2[nH]ncc2Br)c1 | active: 3.16 µM |  |
| CCOc1cc(S(=O)(=O)NC2CCCCCC2)ccc1F |  | inactive: -3.21% |
| CC[C@H](C)[C@@H](NC(=O)O[C@@H]1Cc2cc(OC)ccc2O[C@H]1c1cccc(OC)c1)C(=O)OC |  | inactive: 5.37% |
| NS(=O)(=O)c1ccc(S(=O)(=O)NCCc2ccccc2)cc1 |  | inactive: -6.65% |
| COc1ccc(C2CC(c3ccc(Br)cc3)=NN2C(=S)Nc2ccccc2)cc1 (centres undefined) |  | inactive: -6.08% |
| COc1ccc2[nH]c(=O)c(CN(C(C)=O)C3CCCCC3)cc2c1 | inconclusive: 31.6 µM [inhibitor, partial curve] |  |
| Cc1cc(C)c2nc(-c3ccccn3)cc(C(=O)NCc3cc(C)n(C)n3)c2c1 | inconclusive: 7.94 µM [inhibitor, partial curve] |  |
| O=C(NCC1CCN(c2ccc(S(=O)(=O)N3CCOCC3)cc2)CC1)c1ccc(Cl)cc1 | inconclusive: 39.8 µM [inhibitor, single point] |  |
| O=C(OC1CCOC1=O)c1cc(-c2cccc(Br)c2)nc2ccccc12 (centres undefined) | inconclusive: 39.8 µM [inhibitor, single point] |  |

| SMILES | Potency | activity change, negative = inhibition |
| --- | --- | --- |
| Cc1cc(=O)n2[nH]c(-c3ccc(F)cc3)cc2n1 | inconclusive: 28.2 µM [inhibitor, partial curve] |  |
| CCOC(=O)c1c(NC(=O)c2nn(CC)cc2Br)sc(C)c1C | inconclusive: 28.2 µM [inhibitor, partial curve] |  |
| COc1ccc(/C=C/C(=O)N(c2ccccn2)C2CCCCC2)cc1OC | inconclusive: 22.4 µM [inhibitor, partial curve] |  |
| COc1cccc(OCCSc2nc3ccccc3c(=O)[nH]2)c1 | inconclusive: 35.5 µM [inhibitor, single point] |  |
| COc1ccc2c(c1)C(=O)[C@@H](OC(=O)NCc1ccco1)[C@H](c1ccc(OC)c(Br)c1)O2 |  | inactive: -10.6% |
| Cc1ccc(Cl)cc1Nc1nc(-c2sc(NC(=O)c3ccccc3)nc2C)cs1 | inconclusive: 39.8 µM [inhibitor, single point] |  |
| O=C(CSc1cccc2cccnc12)OCC(=O)c1ccc(Br)cc1 | inconclusive: 35.5 µM [inhibitor, single point] |  |
| CCS(=O)(=O)c1c([N+](=O)[O-])ncn1C |  | inactive: -1.4% |
| COCc1cc(C)nc(NCCc2ccccc2)c1C#N | inconclusive: 35.5 µM [inhibitor, partial curve] |  |
| CC(C)CCNC(=O)C(NS(=O)(=O)c1ccc2c(c1)c(=O)n(C)c(=O)n2C)c1ccccc1 (centres undefined) | inconclusive: 35.5 µM [inhibitor, single point] |  |
| COc1ccc(N=CC2=C(O)CCCC2=O)cc1 |  | inactive: -25.6% |
| O=C(N=Nc1c(O)[nH]c2ccccc12)c1cc(-c2ccc(F)cc2)n[nH]1 |  | inactive: 26.7% |
| Cc1cc(/C=N\NC(=O)CC(=O)NC2CCCCC2)c(C)n1-c1ccc(Cl)cc1 | inconclusive: 35.5 µM [inhibitor, single point] |  |
| CCCCCNc1nc(N2CCCC2)c2c(c1C#N)CCN(C)C2 | inconclusive: 39.8 µM [inhibitor, single point] |  |
| CCOc1ccccc1C(=O)Nc1nncs1 |  | inactive: 2.15% |
| CCCc1[nH]nc2c1C(c1ccc(OC)c(CSC3=NCCS3)c1)C(C#N)=C(N)O2 (centres undefined) |  | inactive: -17.3% |
| Cc1cc(C)c2[nH]c(=O)c(CN(CC3CCCO3)S(=O)(=O)c3ccc4c(c3)OCCO4)cc2c1 (centres undefined) | inconclusive: 28.2 µM [inhibitor, partial curve] |  |
| CCN(CC)CCCC(C)n1c(-c2ccccc2)nc2c(N3CCOCC3)nc(C)nc21 (centres undefined) | inconclusive: 28.2 µM [inhibitor, single point] |  |
| CCOC(=O)c1sc(NC(=O)CCN2CCCCCC2)c(C(=O)OCC)c1C | inconclusive: 35.5 µM [inhibitor, single point] |  |
| Oc1ccc2ccccc2c1C=NCc1cn2ccsc2n1 | inconclusive: 22.4 µM [inhibitor, single point] |  |
| C[C@@H]1O[C@H](O[C@@H]2[C@H](C)O[C@H](O[C@@H]3[C@H](C)O[C@H](O[C@H]4CC[C@]5(C)[C@@H](CC[C@@H]6[C@H]5C[C@@H](O)[C@]5(C)[C@@H](C7=CC(=O)OC7)CC[C@]65O)C4)C[C@@H]3O)C[C@@H]2O)C[C@H](O)[C@@H]1O |  | inactive: -0.612% [at 25.5 µM] |
| O=C(CCc1ccccc1)Nc1ncn[nH]1 |  | inactive: 7.73% |
| Oc1ccc(/C=N/NC(=S)Nc2cccnc2)c(O)c1O | active: 2.24 µM |  |
| O=C(OC1CCOC1=O)c1cc(-c2ccc(Br)cc2)nc2ccccc12 (centres undefined) | inconclusive: 39.8 µM [inhibitor, single point] |  |
| COc1ccccc1N1CCN(Cc2cc(Br)c(O)c3ncccc23)CC1 | active: 25.1 µM |  |

| SMILES | Potency | activity change, negative = inhibition |
| --- | --- | --- |
| COc1cc(OC)c2c(=O)c(OC)c(-c3ccc(OC)c(OC)c3)oc2c1 | inconclusive: 31.6 µM [inhibitor, partial curve] and inconclusive: 35.5 µM [inhibitor, single point] |  |
| CCOC(=O)C1=C(CSc2nc(C)cc(C)c2C#N)OC(N)=C(C#N)C1c1cccs1 (centres undefined) | inconclusive: 25.1 µM [inhibitor, single point] |  |
| CC(=O)c1cccc(NC(=O)N2CCCC2C(=O)Nc2cccc(C)c2)c1 (centres undefined) |  | inactive: -2.56% |
| COC(=O)c1ccc2c(=O)n(CCO)c(=S)[nH]c2c1 |  | inactive: -9.46% |
| CC(C)Oc1ccc(/C=C(/NC(=O)c2ccccc2)C(=O)NCCC(=O)O)cc1 | inconclusive: 31.6 µM [inhibitor, partial curve] |  |
| COc1ccc(-c2nn(-c3ccccc3)cc2/C=N/NC(=O)c2ccc3c(c2)OCO3)cc1 | inconclusive: 31.6 µM [inhibitor, single point] |  |
| CCOc1ccc(S(=O)(=O)Nc2ccc3c(c2)OCO3)c2cccnc12 | inconclusive: 39.8 µM [inhibitor, single point] |  |
| O=C(Nc1ccccc1)Nc1cccn(Cc2c(F)cccc2Cl)c1=O | inconclusive: 25.1 µM [inhibitor, partial curve] |  |
| CCCc1nc2ccccc2c2nc(N)nn12 | inconclusive: 39.8 µM [inhibitor, single point] |  |
| COc1ccc(NC(=O)Nc2cc(C)cc(C)c2)cn1 |  | inactive: -5.57% |
| O=Cc1cccn1-c1cccc([N+](=O)[O-])c1 |  | inactive: 3.4% |
| Cc1ccc(F)cc1NC(=O)c1cccc(N(C)C)c1 | inconclusive: 25.1 µM [inhibitor, partial curve] |  |
| O=C(Nc1ccc2ccccc2c1)c1cccc(F)c1 | inconclusive: 35.5 µM [inhibitor, single point] |  |
| O=C(O)CCCn1nc(-c2ccccc2)c2ccccc21 | inconclusive: 31.6 µM [inhibitor, single point] |  |
| CCC(c1nnnn1C1CCCC1)N(Cc1cccs1)Cc1cc2cc(C)ccc2[nH]c1=O (centres undefined) | inconclusive: 28.2 µM [inhibitor, single point] |  |
| COc1ccc(NC2=C(Cl)C(=O)N(CCc3ccccc3)C2=O)cc1 |  | inactive: -2.17% |
| COC(=O)c1sc2nc(N)c(C#N)cc2c1N | inconclusive: 11.2 µM [inhibitor, partial curve] |  |
| CCOc1ccc(Cn2nnc(C(=O)Nc3ccc(OC)cc3OC)c2N)cc1 | inconclusive: 35.5 µM [inhibitor, single point] |  |
| CN1CCN(C2=C(Cl)C(=O)N(c3cccc(Cl)c3)C2=O)CC1 |  | inactive: -3.37% |
| Cc1ccc(CNC(=O)c2cc3c(-c4ccc(Cl)cc4)nn(C)c3s2)o1 | inconclusive: 28.2 µM [inhibitor, partial curve] |  |
| O=C(Cc1ccc(Br)cc1)Nc1cccc(Cl)c1 |  | inactive: 2.53% |
| COc1ccc(/C=C2\NC(=S)N(CC3CCCO3)C2=O)c(OC)c1 (centres undefined) |  | inactive: 3.07% |
| Cc1cc(=O)n2ccccc2c1C#N | inconclusive: 28.2 µM [inhibitor, partial curve] |  |
| CCOc1ccc(C2C3=C(CCCC3=O)Nc3ccc4ncccc4c32)cc1 (centres undefined) | inconclusive: 28.2 µM [inhibitor, partial curve] |  |
